According to PubChem BioAssay AID588342 (National Center for Advancing Translational Sciences (NCATS), 2011):
Several values for one entry are separate records, joined by “and”; a condition that tells them apart may be missing. Equal values may be shown once. The whole screen tested about 360,000 compounds, of which about 25,000 (6.9%) were called active. The shares of active, inactive and inconclusive entries below differ from those in the screen. Calls follow the shape of the dose curve; as a rule, active = well fitted inhibition curve with a large enough effect; inconclusive = small, poorly fitted or top-dose-only effect; inactive = flat fitted curve, though single readings scatter. Where the call is inconclusive, the potency comes from a doubtful curve fit.

Biological target: Luciferin 4-monooxygenase (Photinus pyralis) (UniProt P08659)
Chain of UniProt P08659 (P08659 whole entry, looked up): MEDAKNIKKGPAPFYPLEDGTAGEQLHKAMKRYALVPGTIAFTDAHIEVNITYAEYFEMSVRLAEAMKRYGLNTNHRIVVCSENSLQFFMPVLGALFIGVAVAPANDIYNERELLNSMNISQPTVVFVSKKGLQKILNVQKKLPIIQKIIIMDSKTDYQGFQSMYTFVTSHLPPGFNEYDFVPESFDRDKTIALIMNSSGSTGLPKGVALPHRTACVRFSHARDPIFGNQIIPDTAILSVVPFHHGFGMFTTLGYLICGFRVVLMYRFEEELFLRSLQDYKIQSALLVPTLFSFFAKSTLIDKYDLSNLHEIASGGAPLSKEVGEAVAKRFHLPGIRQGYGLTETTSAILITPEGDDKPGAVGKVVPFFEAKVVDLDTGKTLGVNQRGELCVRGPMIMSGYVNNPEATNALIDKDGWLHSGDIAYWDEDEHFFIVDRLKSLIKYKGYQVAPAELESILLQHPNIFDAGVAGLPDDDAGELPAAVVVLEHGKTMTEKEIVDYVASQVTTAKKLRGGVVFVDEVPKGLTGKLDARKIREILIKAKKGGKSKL
Test: qHTS profiling assay for firefly luciferase inhibitor/activator using purifed enzyme and Km concentrations of substrates (counterscreen for miR-21 project); also: nearly all actives have a fitted effect of over 55% in size
Settings: purified FLuc, luminescence inhibition; series mostly up to 57.5 µM
In short: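 Biochemical qHTS of compounds, final roughly 60 µM downward over six points, against 10 nM purified firefly luciferase using Km concentrations of substrates (10 uM D-luciferin, 10 uM ATP) in Tris acetate pH 7.5 buffer; luminescence output.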
Potency is read from the fitted curve at half-maximal effect; tags tell the direction and shape of the fitted curve.

Row | Structure (SMILES) | Potency
1 | CC1CCN(c2oc(-c3ccccc3F)nc2C#N)CC1 | inconclusive: 21.3 µM [inhibitor, single point]
2 | C/C=C\C=C/C(=O)Nc1cccc(C2=NOC3(C2)C[C@@H](C(N)=O)N(C(=O)[C@H]2CCC(=O)N2)C3)c1 (stereo not given in full) | inconclusive: 21.3 µM [inhibitor, partial curve]
3 | Cc1ccn2c(Nc3ccc4c(c3)OCO4)c(-c3ccc(O)cc3)nc2c1 | inconclusive: 16.9 µM [inhibitor, partial curve] and inconclusive: 21.3 µM [inhibitor, single point]
4 | CCCOC(=O)C(C)n1nnc2sc(-c3ccccc3)cc2c1=O (stereo not given) | inconclusive: 8.49 µM [inhibitor, partial curve, poor fit]
5 | N#C/C(=C\c1ccc(-c2ccc(C(=O)O)cc2)o1)C(=O)NCC1CCCO1 (stereo not given) | inconclusive: 21.3 µM [inhibitor, partial curve]
6 | COc1ccc(C(=O)Nc2nc3ccc(OC)cc3s2)cc1 | active: 1.69 µM
7 | CCOC(=O)c1c(C)[nH]c(N=Nc2cccc(OC)c2)c1C | active: 1.69 µM
8 | O=C(Nc1ccc(Cl)c(Cl)c1)Nc1ccccn1 | inconclusive: 1.69 µM [inhibitor, full curve]
9 | C/C(=C\c1ccccc1)C(=O)NCCc1ccccc1 | active: 3.38 µM
10 | COc1ccccc1-c1cc(C(=O)N/N=C/c2cccs2)c2ccccc2n1 | inconclusive: 19 µM [inhibitor, partial curve, poor fit]
11 | Cc1cc(C(=O)NCc2ccc(F)cc2)c2ccccc2n1 | inconclusive: 23.9 µM [inhibitor, partial curve, poor fit]
12 | COCCNC(=O)c1ccc2nc(CCc3ccccc3)oc2c1 | inactive
13 | O=[N+]([O-])c1nn(-c2ccc3c(c2)OCCO3)n(O)c1=NC1CCCCC1 | inconclusive: 26.9 µM [inhibitor, single point]
14 | CCn1cc(C(=O)NC(=S)Nc2cccc(O)c2)cn1 | inconclusive: 30.1 µM [inhibitor, partial curve, poor fit]
15 | CCOc1ccc2nc(NS(=O)(=O)Cc3ccccc3)sc2c1 | active: 26.9 µM
16 | CC(C)OCCCNC(=O)CCCC(=O)Nc1ccc(OCCc2ccccc2)cc1 | inactive
17 | CNC(=O)c1ccsc1NC(=O)c1ccccc1 | inconclusive: 21.3 µM [inhibitor, single point]
18 | O=C(NNS(=O)(=O)c1ccccc1)c1cccc(F)c1 | inconclusive: 37.9 µM [inhibitor, single point]
19 | COc1ccc(C2=NN(C(C)=O)C(c3cn(-c4ccccc4)nc3-c3cccs3)C2)cc1 (stereo not given) | inactive
20 | Cc1cc(N2CCN(C)CC2)nc2ccc(NC(=O)Nc3ccccc3)cc12 | active: 4.78 µM
21 | O=C1CCC(C(=O)N2CCCCCC2)CN1Cc1cccc(C(F)(F)F)c1 (stereo not given) | inactive
22 | O=C(NC1CCCC1)c1ccc(Cl)c(S(=O)(=O)N2CCCCC2)c1 | inactive
23 | O=C(CN1CCOCC1)N/N=C/c1ccc(C(=O)O)cc1 | inconclusive: 23.9 µM [inhibitor, single point]

Row | Structure (SMILES) | Potency
24 | Cn1c(-c2ccc(N)cc2)nc2ccccc21 | active: 19 µM
25 | Cc1c(CCC(=O)O)c(=O)oc2cc3occ(-c4ccccc4)c3cc12 | inconclusive: 19 µM [inhibitor, single point]
26 | COc1ccc(NC(=O)CC2C(=O)N(c3ccccc3)C(=O)N2Cc2cccnc2)cc1 (stereo not given) | inactive
27 | COC(=O)c1nc2ccccc2s1 | inconclusive: 42.6 µM [inhibitor, partial curve, poor fit]
28 | CCNC(=S)N1CCN(c2nc(-c3ccc(F)cc3)cs2)CC1 | inconclusive: 26.9 µM [inhibitor, single point]
29 | CC(=O)c1cccc(NC(=O)CSc2ccc(-c3ccc4c(c3)OCO4)nn2)c1 | inconclusive: 0.536 µM [inhibitor, partial curve, poor fit]
30 | COc1ccc(OCc2nc3ccccc3n2C(C)C)cc1 | inconclusive: 26.9 µM [inhibitor, single point]
31 | O=C(Nc1ccc2oc(-c3ccc4ccccc4c3)nc2c1)c1cc(Br)ccc1Cl | inconclusive: 15.1 µM [inhibitor, partial curve, poor fit]
32 | Cc1noc(C)c1C(=O)OCC(=O)NCc1ccc(Cl)cc1 | inactive
33 | CC(=O)Nc1ccc(-c2cn3cccnc3n2)cc1 | inconclusive: 21.3 µM [inhibitor, single point]
34 | Cc1noc(C)c1COC(=O)COc1ccc(-c2ccccc2)cc1 | inconclusive: 26.9 µM [inhibitor, single point]
35 | Cc1csc(SCC(=O)c2cc(C)n(Cc3cccs3)c2C)n1 | active: 0.169 µM
36 | NC(=O)C(=O)N/N=C1\CCc2ccccc21 | active: 10.7 µM
37 | Oc1c(Cl)cc(Cl)cc1/C=N/NC(=S)NC1CC2C=CC1C2 (stereo not given) | inconclusive: 37.9 µM [inhibitor, partial curve, poor fit]
38 | CC(c1ccco1)N(C(=O)COc1ccc(Cl)cc1)c1ccccn1 (stereo not given) | active: 21.3 µM
39 | Cc1ccc(F)cc1NCC(=O)Nc1ccc(Br)cc1 | inconclusive: 23.9 µM [inhibitor, single point]
40 | Cc1ccc(-n2nc3cc(Cl)c(NC(=O)c4ccco4)cc3n2)cc1 | inconclusive: 2.13 µM [inhibitor, full curve]
41 | Cc1cccc(-c2noc(-c3ccc(N4CCCC4)c([N+](=O)[O-])c3)n2)c1 | inconclusive: 19 µM [inhibitor, partial curve, poor fit]
42 | O=C1C(Cl)=C(NC(=O)c2ccccc2)C(=O)C(Cl)=C1NC(=O)c1ccccc1 | inconclusive: 3.38 µM [inhibitor, full curve, poor fit]
43 | Cc1ccc(NC(=O)CSc2ncc3ccccn23)cc1 | inconclusive: 37.9 µM [inhibitor, partial curve, poor fit]
44 | Cc1ccc(C(=O)Nc2ccc(SC(F)F)cc2)s1 | active: 6.75 µM
45 | CCOC(=O)C1C(=O)N(O)CC1c1cccc(Oc2ccccc2)c1 (stereo not given) | inconclusive: 21.3 µM [inhibitor, single point]
